# Hit rate of the full screen: of about 310,000 compounds, about 14,000 (4.5%) showed an effect of 50% or more. Effects have a minus sign here. This is one part of the list.
# Target: human ether-à-go-go-related gene (hERG) potassium channel (human, UniProt Q12809)
# Assay: primary screen, population patch clamp on CHO cells stably expressing hERG
# 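Also: peak tail current of the secondary pulse compared with the same well before compound.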
# human ether-à-go-go-related gene (hERG) potassium channel, sequence (Q12809 whole entry, looked up): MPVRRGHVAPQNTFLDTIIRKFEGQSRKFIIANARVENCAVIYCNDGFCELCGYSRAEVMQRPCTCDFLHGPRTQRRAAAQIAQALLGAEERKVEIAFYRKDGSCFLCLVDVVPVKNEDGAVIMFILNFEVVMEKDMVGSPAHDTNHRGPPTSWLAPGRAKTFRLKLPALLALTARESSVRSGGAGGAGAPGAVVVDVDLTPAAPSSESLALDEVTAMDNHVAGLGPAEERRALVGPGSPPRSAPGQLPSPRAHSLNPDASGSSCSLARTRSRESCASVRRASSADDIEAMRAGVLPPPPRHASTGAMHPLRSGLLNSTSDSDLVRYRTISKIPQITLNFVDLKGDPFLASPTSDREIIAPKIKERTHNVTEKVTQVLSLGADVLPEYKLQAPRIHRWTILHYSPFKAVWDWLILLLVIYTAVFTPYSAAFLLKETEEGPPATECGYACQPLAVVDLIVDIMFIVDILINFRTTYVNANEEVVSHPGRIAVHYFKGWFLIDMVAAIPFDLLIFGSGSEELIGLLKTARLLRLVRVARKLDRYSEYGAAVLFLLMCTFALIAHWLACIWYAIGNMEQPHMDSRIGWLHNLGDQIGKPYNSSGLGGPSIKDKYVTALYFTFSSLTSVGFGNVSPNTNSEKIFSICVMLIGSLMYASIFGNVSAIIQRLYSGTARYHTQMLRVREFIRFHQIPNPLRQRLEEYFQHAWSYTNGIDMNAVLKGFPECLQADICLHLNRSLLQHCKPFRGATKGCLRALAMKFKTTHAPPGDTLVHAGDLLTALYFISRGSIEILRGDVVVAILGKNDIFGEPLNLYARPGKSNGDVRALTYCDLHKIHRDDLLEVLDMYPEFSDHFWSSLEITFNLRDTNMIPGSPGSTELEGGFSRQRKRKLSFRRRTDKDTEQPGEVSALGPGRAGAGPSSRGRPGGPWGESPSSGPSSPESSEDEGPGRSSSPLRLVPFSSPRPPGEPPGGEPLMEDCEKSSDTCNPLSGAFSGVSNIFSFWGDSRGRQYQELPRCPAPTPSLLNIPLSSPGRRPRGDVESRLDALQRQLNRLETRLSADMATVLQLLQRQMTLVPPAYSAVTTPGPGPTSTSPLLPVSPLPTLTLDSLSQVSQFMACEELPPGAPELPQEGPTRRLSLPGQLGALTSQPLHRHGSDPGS
row,Compound,"hERG current change (%, negative = inhibition) at 10uM [%]"
1,CC(=O)NCCC(=O)Nc1nc2ccc(Oc3ccccc3)cc2s1,-19.8
2,O=[N+]([O-])c1cccc(-c2cc(C(F)(F)F)n3nc(-c4ccccc4)cc3n2)c1,4.94
3,Cc1cc(C)c(C(=O)Nc2ccc(S(=O)(=O)Nc3onc(C)c3C)cc2)c(C)c1,0.525
4,Cc1ccc(Oc2c(F)c(F)nc(N3CCCC3)c2F)cc1,-8.46
5,CCOC(=O)/C(C#N)=C1\Nc2ccccc2N=C1N(CC(C)C)CC(C)C,10.3
6,CC(C)OC(=O)N(C)c1ccc(C(O)(C(F)(F)F)C(F)(F)F)cc1,-19.3
7,CCCn1c(C(O)c2ccc(C)cc2)nc2ccccc21 (stereo not drawn),15.8
8,CC(=O)Nc1ccc(S(=O)(=O)Nc2nccc(C)n2)cc1,-20.2
9,CCOc1ccc(NC(=O)Cc2cccc3ccccc23)c([N+](=O)[O-])c1,7.66
10,CCN(CC)CCNC(=O)CCCNC(=O)Cn1cnc2sc(C)c(C)c2c1=O,-6.02
11,O=C(Nc1ccccc1C(F)(F)F)c1cc2ccccc2o1,15.8
12,C=CCn1cccc(C(=O)Nc2ccc(OCC)cc2)c1=O,-13.6
13,CCOC(=O)/C=C(\C)N1N=C(c2ccccc2)CC1c1ccccc1 (stereo not drawn),-1.77
14,CC(C)c1ccc(N=Cc2c(O)n(C3CC3)c(=S)[nH]c2=O)cc1,2.22
15,Cc1cccc(NS(=O)(=O)c2c(C(=O)N3CCOCC3)c(C)n(C)c2C)c1C,20
16,CC(C)NC(=O)CCc1nc2cccnc2n1-c1ccccc1,-9.04
17,C=CCNC(=S)Nc1cccc(N)c1,-1.06
18,CC(=O)Nc1ccc(NC(=O)CCCSc2nc3ccccc3[nH]2)cc1,-2.05
19,Cc1ccc(Oc2nc(CN3CCOCC3)nc3sc4c(c23)CCC(C)C4)cc1 (stereo not drawn),-0.246
20,COc1ccc(/C=N/c2oc(-c3ccccc3)cc2C#N)cc1OC,-3.51
21,Cc1cc(=O)oc2cc(OC(C)C(=O)NC3(C#N)CCCCC3)ccc12 (stereo not drawn),-13.9
22,CC1CN(C2CCCCC2)c2nc3c(c(=O)n(C)c(=O)n3C)n2C1 (stereo not drawn),-3

row,Compound,"hERG current change (%, negative = inhibition) at 10uM [%]"
1,COc1ccc(C(Nc2ccccn2)c2c(NC(=O)c3ccco3)sc(C)c2C)cc1 (stereo not drawn),-8.28
2,O=C(CNC(=O)C(c1ccccc1)c1ccccc1)OCC(=O)c1cccs1,-3.52
3,O=C(c1ccc(F)cc1)C1CCN(C(=O)Nc2ccccc2Cl)CC1,-23
4,O=C(c1ccc(Cl)c(S(=O)(=O)N2CCOCC2)c1)N1CCN(Cc2ccccc2)CC1,-25.3
5,N#Cc1ccc(NC(=O)CCNC(=O)c2ccco2)cc1Cl,1.68
6,Cc1cc([N+](=O)[O-])ccc1NCc1ccccc1[N+](=O)[O-].O=C(O)C(=O)O,14.1
7,CCOC(=O)C(=Cc1ccc(OCc2ccc([N+](=O)[O-])cc2)c(OC)c1)C(=O)OCC,-16.4
8,Cc1nc2c(Cl)cccc2[nH]1,7.09
9,CC(=O)N(C)c1ccc(N=Cc2cc3c(cc2[N+](=O)[O-])OCO3)cc1,11.1
10,CN(C1CCCCC1)S(=O)(=O)c1ccc(SCC(=O)NC(C)(C)C)nc1,22.2
11,Cc1nn(-c2nc3ccccc3[nH]2)c(N)c1-c1ccccc1,0.295
12,CCOc1ccc(NC(=S)N2CCN(CCN3C(=O)c4cccc5cccc(c45)C3=O)CC2)cc1,9.17
13,OCCC1CN(Cc2cnc(-c3cccc4ccccc34)nc2)CCN1C1CCCCC1 (stereo not drawn),-13.2
14,CC(C)(C)CC(C)(C)NCC(O)COc1c(F)cc(Br)cc1F.Cl (stereo not drawn),-40.3
15,CN(C)c1ncccc1-c1nc2ccccc2s1,16.4
16,O=C(O)c1ccc(Nc2nc3ccc(Cl)cc3[nH]2)cc1,17
17,COc1ccc2oc(=O)cc(-c3cc4cccc(OC)c4o3)c2c1,17.3
18,CCOC(=O)C1CCCN(c2c(NCC3CCCN3CC)c(=O)c2=O)C1 (stereo not drawn),14.5
19,CCC(NC(=O)OC(C)(C)C)C(=O)Oc1ccc2c3c(c(=O)oc2c1)CCC3 (stereo not drawn),8.08
20,CSc1ccc(-c2nnn(Cc3ccccn3)n2)cc1,-11.5
21,O=C(CSCCO)Nc1cccc([N+](=O)[O-])c1,17.5
22,Cc1cc(C(=O)Nc2ccccc2C(=O)O)ccc1NC(=O)COc1cccc([N+](=O)[O-])c1,19.8

row,Compound,"hERG current change (%, negative = inhibition) at 10uM [%]"
1,CCOC(=O)c1ccc(-c2ccc3c(=O)c4ccccc4n(C)c3c2)cc1F,9.61
2,O=C(NNC(=O)c1ccc(Cl)cc1Cl)c1ccncc1,17
3,COc1ccc(N(C)S(=O)(=O)c2cccc(C(=O)Nc3ccc(N4CCOCC4)cc3)c2)cc1,-13.9
4,CN(Cc1ccccc1)C(NC(=O)c1ccccc1)C(Cl)(Cl)Cl (stereo not drawn),7.9
5,O=C(CNC(=O)c1ccco1)NCC(=O)OCc1ccccc1Cl,-11.8
6,COc1cc(NC(=S)NC2CC(C)(C)NC(C)(C)C2)c(OC)cc1Cl,-3.66
7,Cn1c(=O)c2c(nc(SCc3ccccc3F)n2C)n(C)c1=O,13.2
8,CC(C)C1=CC(=NS(=O)(=O)c2cccc([N+](=O)[O-])c2)C=C(C(C)C)C1=O,5.69
9,O=C(NC1CCN(Cc2ccccc2)CC1)c1ccccc1OCc1ccccc1Cl,-69.2
10,CN(CC(=O)Nc1ccc(C#N)cc1)Cc1ccc(Cl)cc1Cl,-66.8
11,O=C(NCCCc1ccncc1)C1CCC(=O)N(CCc2cccc(F)c2)C1 (stereo not drawn),-51.8
12,O=C(C1=NN[C@@H]2C(=O)N(c3cccc(C(F)(F)F)c3)C(=O)[C@H]12)C(c1ccccc1)c1ccccc1,-0.206
13,CN1CCN(S(=O)(=O)c2cccc(C(=O)Nc3sccc3C(N)=O)c2)CC1,-75.4
14,CC(C)=NOc1nc(N(C)C)nc(N(C)C)n1,4.23
15,Cc1ccc(N2C(=O)NC(=O)/C(=C\c3cnc(-c4ccccc4)nc3)C2=O)cc1,7.17
16,O=C(O)C1CCC(=O)N(C2CCCCC2)C1c1ccccc1 (stereo not drawn),8.08
17,Cc1c2cnn(CC(=O)N3CCC4(CC3)OCCO4)c(=O)c2c(C)n1Cc1ccccc1Cl,0.64
18,C=CCNC(=O)c1cccn1-c1ccsc1C(=O)OC,2.87
19,CCCc1cc(C(=O)N2CCCC(Cc3ccccc3C)(C(=O)OCC)C2)no1 (stereo not drawn),-40.7
20,CSc1ccc(/C=C(/NC(=O)c2ccco2)C(=O)N2CCCCCC2)cc1,-26.2
21,O=C(NCC1CC1)[C@]1(C(F)(F)F)C[C@H](CCC2CCCCC2)CCCO1,7.76
22,COc1cc(/C=C(/C(=O)c2cccs2)c2nc3ccccc3[nH]2)cc(OC)c1O,-56.1

row,Compound,"hERG current change (%, negative = inhibition) at 10uM [%]"
1,O=C(Cc1cccs1)N(c1ccc(F)cc1)C1(C(=O)NC2CCCCC2)CCCC1,13.6
2,O=C(NCCC1CCCCN1S(=O)(=O)c1ccccc1)C(=O)NCc1cccnc1 (stereo not drawn),-3.45
3,Cc1cccc(NC(=O)C2CC(=O)N(Cc3ccccc3)C2)n1 (stereo not drawn),15.7
4,CCCCn1c(N)c(N(CCOC)C(=O)C(C)N2C(=O)c3ccccc3C2=O)c(=O)[nH]c1=O (stereo not drawn),5.02
5,CCc1nc(-c2ccccc2)cc(=O)[nH]1,-6.29
6,COc1cc(CN(C)Cc2cc(=O)oc3cc(C)c(Cl)cc23)ccc1OC(F)F,12
7,Cc1ccc(S(=O)(=O)N2CCN(CC(=O)N/N=C\c3ccccn3)CC2)cc1,-36.3
8,CC(C)c1cc(CNC(=O)CC2C(=O)NCCN2CC2CCCCC2)on1 (stereo not drawn),11.2
9,COc1cc(CNCCCCO)ccc1OCc1ccccc1F.Cl,-14.2
10,Cc1cc(C)n2c(SCc3ccc(C#N)cc3)nnc2n1,-32.5
11,Clc1ccc(-c2nc3nc4ccccc4nc3n2Cc2ccco2)cc1,-12.3
12,COc1ccc(N2CCOCC2)c(NC(=O)c2ccco2)c1,-73.1
13,COc1ccc(Nc2nnc(C)c3ccccc23)cc1C(N)=O,12.2
14,CCc1noc2c1/C(=N\O)CC(c1ccccc1)C2 (stereo not drawn),4.82
15,CCCn1c(SCC(=O)Nc2nc(-c3ccc(OC)cc3)cs2)nc2c1c(=O)n(C)c(=O)n2C,2.71
16,COc1ccc(C)cc1N/C(N)=N/c1nc(C)cc(C)n1,-74.4
17,Cc1cccc(N2CCN(C(=O)Cn3cccc3C(=O)c3ccccc3)CC2)c1C,-17.2
18,O=C(NCc1ccco1)N1c2ccccc2Sc2ccccc21,-3.6
19,COCCCn1c(SCC(=O)Nc2ccc(C(=O)OC)cc2)nc2ccccc2c1=O,-25.6
20,O=S1(=O)N=C(N2CCCc3ccccc32)c2ccccc21,-8.39
21,COc1cc(C2NC(=O)NC(C)=C2C(=O)OCC2CCCCC2)cc(Cl)c1O (stereo not drawn),5.43
